# In all, about 210,000 compounds went through this assay and about 730 (0.35%) were called active. The inconclusive results got no clear call from the source; some entries with a clear call stand among them for comparison. The call rests on the fitted dose curve; in most records, active means well fitted inhibition curve with a large enough effect; inconclusive means small, poorly fitted or top-dose-only effect; inactive means no such curve, though single readings can be large or run the other way. Potencies beside an inconclusive call are fits to weak or partial responses and may not hold up.
# Assay: qHTS Assay for Identifying the Cell-Membrane Permeable IMPase Inhibitors: Potentiation with Lithium; further: nearly all actives have a fitted effect of over 50% in size;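 on activity, negative = IMPase inhibition: plate controls were basal vehicle for no effect and high inhibitor control for full effect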
# Settings: CHO-M1 cells, IP1 TR-FRET (IP-One), carbachol + lithium; series mostly up to 59.4 µM; activity, negative = IMPase inhibition: at the top concentration
# In short: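 IP1 accumulation measured by competitive TR-FRET in lysed CHO-M1 cells after 30 min compound exposure at 37C, with a small lithium addition to potentiate weak responses. Hill-equation AC50 from ratio and donor-channel data.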
# Potency means the concentration at half of the fitted maximal effect.
Structure (SMILES),Potency,"activity, negative = IMPase inhibition"
COC(=O)c1sc(NC(=S)NC(=O)c2ccccc2F)nc1C,"inconclusive: 22.4 µM [inhibitor, single point]",–
COc1ccc(Oc2nc3c(c(=O)n(C)c(=O)n3C)n2Cc2cccc(OC)c2)cc1,–,inactive: 18% [at 38.3 µM]
CCOC(=O)c1c(NC(=O)CSc2nnc(-c3ccccc3)o2)sc(C(C)=O)c1C,"inconclusive: 28.2 µM [inhibitor, single point]",–
c1csc(CNc2ncnc3ccc(-c4ccc5c(c4)OCO5)cc23)c1,–,inactive: 5.5%
COCC(=O)Nc1ccc(C)c(Cl)c1,"inconclusive: 28.2 µM [inhibitor, single point]",–
Nc1ncnc2c1ncn2[C@@H]1O[C@H](COP(=O)(O)OP(=O)(O)O)[C@@H](O)[C@H]1O,"inconclusive: 28.2 µM [inhibitor, single point]",–
COn1c(SC2CCCCC2)nc2ccccc2c1=O,–,inactive: -0.624% [at 38.3 µM]
Cc1ccc(-c2nc(CSCC(=O)N3CCCC3)c(C)o2)cc1,"inconclusive: 10 µM [inhibitor, partial curve]",–
CCN(CC)CCn1c(SCC(=O)NCc2ccco2)nc2c(sc3ccccc32)c1=O,"inconclusive: 28.2 µM [inhibitor, single point]",–
O=C(Nc1nnc(-c2ccccc2F)s1)Nc1ccccc1F,active: 10 µM,–
COCCCN1C(=O)C(=O)/C(=C(/O)c2ccc(OC)cc2C)C1c1cccnc1 (configuration not stated),"inconclusive: 12.6 µM [inhibitor, single point]",–
Cc1ccc2ccc(C(Nc3ccccn3)c3ccccc3)c(O)c2n1 (configuration not stated),–,inactive: 9.11% [at 38.3 µM]
Cc1ccc2cc(CCNC(=O)CC(C)(C)C)c(=O)[nH]c2c1C,active: 12.6 µM,–
COc1cc2c(cc1NC(=O)COc1ccc3ccccc3c1)oc1ccccc12,"inconclusive: 28.2 µM [inhibitor, single point]",–
Cc1ccc(C)c(N2CCN(C(=O)CCNC(=O)Cn3ccc4ccccc4c3=O)CC2)c1,"inconclusive: 12.6 µM [inhibitor, partial curve]",–
C=CCSc1nnc(NC(=O)Cn2cnc3c2c(=O)n(C)c(=O)n3C)s1,"inconclusive: 3.16 µM [inhibitor, partial curve]",–
CC(=O)c1c(O)c(C)c(O)c2c1OC1=CC(=O)C(C(C)=O)C(=O)[C@@]12C (some centres not stated),–,inactive: 12.7%
COc1cccc(OCc2cc(C3Nc4ccccc4C(=O)N3Cc3ccco3)ccc2OC)c1 (configuration not stated),–,inactive: 26.1%
Cc1cc(SC(C)C(=O)O)nc2ccccc12 (configuration not stated),"inconclusive: 15.8 µM [inhibitor, partial curve]",–
CCOC(=O)/C=c1\s/c(=C\c2ccc3cc(OC)ccc3c2)c(=O)n1CC(=O)NCC1CCCO1 (configuration not stated),"inconclusive: 14.1 µM [inhibitor, single point]",–
COC(=O)c1sc(NC(=O)c2ccco2)nc1C,active: 10 µM,–
COc1ccccc1CNC(=O)c1cn(C)c2ccc(S(=O)(=O)N3CCCC3)cc2c1=O,"inconclusive: 28.2 µM [inhibitor, single point]",–
COc1ccc(-c2[nH]c(-c3ccc(C(=O)O)cc3)nc2-c2ccccc2)cc1,"inconclusive: 14.1 µM [inhibitor, single point]",–
CN(C)CCN(C(=O)c1ccc(N2C(=O)CCC2=O)cc1)c1nc2cc3c(cc2s1)OCCO3,–,inactive: -4.11%

Structure (SMILES),Potency,"activity, negative = IMPase inhibition"
COc1ccccc1-c1cncnc1NCCNC(C)=O,–,inactive: -4.13%
COc1ccccc1-c1ccc2ncnc(N3CCNCC3)c2c1,–,inactive: 28.9%
Fc1ccc(N2N=C(c3cccs3)CC2c2ccccc2)cc1 (configuration not stated),active: 10 µM,–
Cc1nc2ccc(F)cc2cc1C(=O)Nc1cccc(Cl)c1C,"inconclusive: 28.2 µM [inhibitor, single point]",–
O=c1c2ccccc2nc2n1CCCCC2,–,inactive: 13.8% [at 38.3 µM]
COC(=O)C1=C(O)CSC1=Nc1ccccc1,"inconclusive: 31.6 µM [inhibitor, single point]",–
Cc1nc2cc(NS(=O)(=O)c3ccc(Br)cc3)ccc2n1C,–,inactive: 13%
N#Cc1c(NC(=O)c2ccccc2)sc2c1CCC2,"inconclusive: 28.2 µM [inhibitor, single point]",–
C#CCn1c(=NC(=O)CSC(C)=O)sc2cc(F)ccc21,"inconclusive: 14.1 µM [inhibitor, single point]",–
Nc1c(C(=O)Nc2ccccc2F)sc2nc(Cc3ccccc3)cc(C(F)(F)F)c12,active: 10 µM,–
COc1cccc2cc(C(=O)NCc3ccco3)c(=O)oc12,active: 11.2 µM,–
Cc1cccc(CCNc2nc3ccccc3n3nnnc23)c1,"inconclusive: 3.55 µM [inhibitor, single point]",–
CN(C)c1ncc2nc(-c3ccc(F)cc3)c(=O)n(C3CC3)c2n1,"inconclusive: 28.2 µM [inhibitor, single point]",–
CNc1oc(-c2ccc(Cl)cc2)nc1C#N,"inconclusive: 5.62 µM [inhibitor, partial curve]",–
Cn1c2ccccc2c2c(C(=O)O)cn(C3CCCC3)c(=O)c21,"inconclusive: 8.91 µM [inhibitor, partial curve]",–
COc1ccc(-c2oc3cc(OC)ccc3c(=O)c2O)cc1,–,inactive: -16.3%
CC(=O)NC1C(c2nc3ccccc3s2)=C(c2ccccc2)C(=O)N1c1ccc(C)cc1 (configuration not stated),–,inactive: 3.78% [at 38.3 µM]
COc1ccc2[nH]c(=O)c(C(=O)O)cc2c1,"inconclusive: 11.2 µM [inhibitor, partial curve]",–
O=C(Nc1cccc2c1C(=O)NC2=O)c1ccc(N2C(=O)CCC2=O)cc1,"inconclusive: 20 µM [inhibitor, single point]",–
COc1cccc(C2=CC(c3ccccc3)n3ncnc3N2)c1 (configuration not stated),"inconclusive: 25.1 µM [inhibitor, single point]",–
Cn1c(=O)c2c(-c3ccccc3)n(-c3ccccc3O)cc2n(C)c1=O,"inconclusive: 8.91 µM [inhibitor, single point]",–
CCOC(=O)c1c(NC(=O)C2C3C=CC(CC3)C2C(=O)O)sc(C)c1CC (configuration not stated),"inconclusive: 10 µM [inhibitor, partial curve]",–
CC1=CC(=C(C#N)C#N)C=C(C)N1CCN1CCN(C(=O)Nc2ccc(Cl)c(Cl)c2)CC1,"inconclusive: 28.2 µM [inhibitor, single point]",–

# From PubChem BioAssay AID1457 (National Center for Advancing Translational Sciences (NCATS), 2008)
